In the supplement of paper PMC4604168 (melanoma cell lines):
Some of the results follow. Single values are uncertain, as repeats are few or missing.

Assays:
Assay in all cases: cell count relative to DMSO control; melanoma cells; higher = more viable cells
Settings in all cases: library dose: low library concentration; 72 h
WM115 = system: WM115
WM1716 = system: WM1716
WM1745 = system: WM1745
WM3526 = system: WM3526
WM3619 = system: WM3619
WM451Lu = system: WM451Lu
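Note: cell number obtained by counting DAPI-stained nuclei in high-throughput microscope images with image analysis software, screen run in 1,536-well plates.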

## CC1(C)CCC(c2ccc(Cl)cc2)=C(CN2CCN(c3ccc(C(=O)NS(=O)(=O)c4ccc(N[C@H](CCN5CCOCC5)CSc5ccccc5)c(S(=O)(=O)C(F)(F)F)c4)cc3)CC2)C1 + CC(=O)O[C@@]12CO[C@@H]1C[C@H](O)[C@@]1(C)C(=O)[C@H](O)C3=C(C)[C@@H](OC(=O)[C@H](O)[C@@H](NC(=O)OC(C)(C)C)c4ccccc4)C[C@@](O)([C@@H](OC(=O)c4ccccc4)[C@H]21)C3(C)C [Docetaxel] (first compound 0.4 µM, partner dose 0.0001 µM)
WM115
  cell count: 47.9%
WM1716
  cell count: 35.1%
WM1745
  cell count: 8.31%
WM3526
  cell count: 20.2%
WM3619
  cell count: 34.2%
WM451Lu
  cell count: 48.4%

## O=C(/C=C/c1cccnc1)NCCCCC1CCN(C(=O)c2ccccc2)CC1 + CCN(CC)CCNC(=O)c1c(C)[nH]c(/C=C2\C(=O)Nc3ccc(F)cc32)c1C [sunitinib] (first compound 0.01 µM, partner dose 0.4 µM)
WM115
  cell count: 100%
WM1716
  cell count: 114%
WM1745
  cell count: 94.3%
WM3526
  cell count: 76.2%
WM3619
  cell count: 76.6%
WM451Lu
  cell count: 103%

## Cc1ccc(Nc2nccc(N(C)c3ccc4c(C)n(C)nc4c3)n2)cc1S(N)(=O)=O [Pazopanib] + CO[C@@H]1[C@H](N(C)C(=O)c2ccccc2)C[C@H]2O[C@]1(C)n1c3ccccc3c3c4c(c5c6ccccc6n2c5c31)C(=O)NC4 [Midostaurin] (first compound 0.4 µM, partner dose 0.08 µM)
WM115
  cell count: 82.6%
WM1716
  cell count: 71.8%
WM1745
  cell count: 63.3%
WM3526
  cell count: 72.8%
WM3619
  cell count: 94.7%
WM451Lu
  cell count: 85.5%

## Cc1ccc(Nc2nccc(N(C)c3ccc4c(C)n(C)nc4c3)n2)cc1S(N)(=O)=O [Pazopanib] + Cn1nnc2c(C(N)=O)ncn2c1=O [temozolomide] (first compound 0.4 µM, partner dose 2 µM)
WM115
  cell count: 96.9%
WM1716
  cell count: 89.7%
WM1745
  cell count: 90.5%
WM3526
  cell count: 95.9%
WM3619
  cell count: 84.5%
WM451Lu
  cell count: 88.8%

## O=C(/C=C/c1cccnc1)NCCCCC1CCN(C(=O)c2ccccc2)CC1 + C[C@]1(O)C[C@@H](c2nc(-c3ccc4ccc(-c5ccccc5)nc4c3)c3c(N)nccn32)C1 [OSI906] (first compound 0.01 µM, partner dose 0.4 µM)
WM115
  cell count: 103%
WM1716
  cell count: 110%
WM1745
  cell count: 89.2%
WM3526
  cell count: 78.5%
WM3619
  cell count: 75.7%
WM451Lu
  cell count: 114%

## CC1(C)CCC(c2ccc(Cl)cc2)=C(CN2CCN(c3ccc(C(=O)NS(=O)(=O)c4ccc(N[C@H](CCN5CCOCC5)CSc5ccccc5)c(S(=O)(=O)C(F)(F)F)c4)cc3)CC2)C1 + COc1cc(N2CCC(N3CCN(C)CC3)CC2)ccc1Nc1ncc(Cl)c(Nc2ccccc2S(=O)(=O)C(C)C)n1 [NVP-TAE684] (first compound 0.4 µM, partner dose 0.08 µM)
WM115
  cell count: 77.8%
WM1716
  cell count: 54.4%
WM1745
  cell count: 15.2%
WM3526
  cell count: 77.2%
WM3619
  cell count: 76%
WM451Lu
  cell count: 83.7%

## Cc1ccc(Nc2nccc(N(C)c3ccc4c(C)n(C)nc4c3)n2)cc1S(N)(=O)=O [Pazopanib] + C=C(c1ccc(C(=O)O)cc1)c1cc2c(cc1C)C(C)(C)CCC2(C)C [Bexarotene] (first compound 0.4 µM, partner dose 2 µM)
WM115
  cell count: 104%
WM1716
  cell count: 77.3%
WM1745
  cell count: 95.7%
WM3526
  cell count: 78.6%
WM3619
  cell count: 111%
WM451Lu
  cell count: 85.7%

## CC1(C)CCC(c2ccc(Cl)cc2)=C(CN2CCN(c3ccc(C(=O)NS(=O)(=O)c4ccc(N[C@H](CCN5CCOCC5)CSc5ccccc5)c(S(=O)(=O)C(F)(F)F)c4)cc3)CC2)C1 + Oc1nc(-c2ccc(C(F)(F)F)cc2)nc2c1CSCC2 [XAV939] (first compound 0.4 µM, partner dose 2 µM)
WM115
  cell count: 82.1%
WM1716
  cell count: 38.3%
WM1745
  cell count: 8.97%
WM3526
  cell count: 91%
WM3619
  cell count: 71.4%
WM451Lu
  cell count: 87.6%

## O=C(/C=C/c1cccnc1)NCCCCC1CCN(C(=O)c2ccccc2)CC1 + CCCS(=O)(=O)Nc1ccc(F)c(C(=O)c2c[nH]c3ncc(Cl)cc23)c1F [PLX4720] (first compound 0.01 µM, partner dose 0.08 µM)
WM115
  cell count: 108%
WM1716
  cell count: 105%
WM1745
  cell count: 98.3%
WM3526
  cell count: 85.2%
WM3619
  cell count: 82.7%
WM451Lu
  cell count: 92.4%

## CC1(C)CCC(c2ccc(Cl)cc2)=C(CN2CCN(c3ccc(C(=O)NS(=O)(=O)c4ccc(N[C@H](CCN5CCOCC5)CSc5ccccc5)c(S(=O)(=O)C(F)(F)F)c4)cc3)CC2)C1 + CS(=O)(=O)c1ccc(C(=O)Nc2ccc(Cl)c(-c3ccccn3)c2)c(Cl)c1 [vismodegib] (first compound 0.4 µM, partner dose 1 µM)
WM115
  cell count: 81.9%
WM1716
  cell count: 72.6%
WM1745
  cell count: 30.7%
WM3526
  cell count: 116%
WM3619
  cell count: 73.1%
WM451Lu
  cell count: 105%
